In PubChem BioAssay AID1159614 (National Center for Advancing Translational Sciences (NCATS), 2016):
About 65 (0.1%) of roughly 45,000 compounds were called active. The call rests on the fitted dose curve; in most records, active means well fitted activation curve with a large enough effect; inconclusive means small, poorly fitted or top-dose-only effect; inactive means no such curve, though single readings can be large or run the other way. This is one part of the list.

Molecular target: Galactocerebrosidase (Homo sapiens) (UniProt P54803)
UniProt P54803, sequence (P54803 whole entry, looked up): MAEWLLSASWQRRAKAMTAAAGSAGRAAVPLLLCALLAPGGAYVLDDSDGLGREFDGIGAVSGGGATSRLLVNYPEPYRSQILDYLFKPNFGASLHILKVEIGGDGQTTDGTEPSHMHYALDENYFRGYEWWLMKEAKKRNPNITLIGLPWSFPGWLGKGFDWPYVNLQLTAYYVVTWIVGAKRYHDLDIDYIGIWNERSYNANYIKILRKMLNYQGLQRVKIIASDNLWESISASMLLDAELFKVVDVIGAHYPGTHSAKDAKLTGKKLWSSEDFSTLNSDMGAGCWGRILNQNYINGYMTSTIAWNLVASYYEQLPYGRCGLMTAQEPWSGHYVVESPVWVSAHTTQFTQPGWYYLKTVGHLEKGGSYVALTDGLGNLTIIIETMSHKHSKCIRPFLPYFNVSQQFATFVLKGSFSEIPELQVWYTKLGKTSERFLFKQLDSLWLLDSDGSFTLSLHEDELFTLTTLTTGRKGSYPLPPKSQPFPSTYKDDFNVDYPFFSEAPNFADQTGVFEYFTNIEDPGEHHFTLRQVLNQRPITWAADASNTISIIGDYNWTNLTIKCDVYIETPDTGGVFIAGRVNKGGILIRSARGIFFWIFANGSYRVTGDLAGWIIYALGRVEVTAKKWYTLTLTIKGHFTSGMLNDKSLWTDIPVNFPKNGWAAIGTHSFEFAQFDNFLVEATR
Assay: A Novel Cell-Based Assay to Identify Small Molecules for B -Galactocerebrosidase; further: 0% is about no effect; nearly all actives have a fitted effect of over 65% in size
Settings: 145M-Twi-hGALC-G270D cells (Twitcher mouse brain line with human GALC G270D), HMU-beta-Gal fluorescence, 48 h; series mostly up to 57.5 µM; activation: at the top concentration
How it was run: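 Fluorescence readout: HMU-β-gal cleavage by mutant GALC (0.1 mM final, citrate/phosphate pH 5.2 with 1 mg/mL taurocholate), stopped with carbonate/bicarbonate plus Triton X-100. Cells: murine Twitcher 145M-Twi expressing human G270D GALC; qHTS for activators.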

activation, inactive:
COc1ccc(N(C(=O)c2ccccc2C)S(=O)(=O)c2ccc3c(c2)n(C)c(=O)n3C)cc1 -11%, CCNc1c(NC(=O)c2ccccc2OCC)c(=O)oc2ccccc12 -8.74%, CSCCC(NC(=O)C1CCCCC1)C(=O)Nc1ccc(F)c(Cl)c1 (stereo unspecified) -8.64%, Cc1cc(N2CCN(C)CC2)nc2ccc(NC(=O)Nc3ccccc3Cl)cc12 1.56%, Cc1ccc(OCC(=O)OCc2cc(=O)n3nc(C4CCCCC4)sc3n2)cc1 -12%, CCN(c1ncnc2c1c(-c1ccccc1)cn2-c1ccccc1)C1CCCCC1 -12.4%, COc1ccc(-n2c(=O)c3c(C)c(C)sc3n(Cc3ccc(F)cc3)c2=O)c(OC)c1 -21.3%, Cc1ccc(S(=O)(=O)N2CCCc3cc(NC(=O)c4ccc(C(F)(F)F)cc4)ccc32)cc1 -13.6%, Cc1ccc(N2C(=O)[C@@H]3CSC(c4ccc(C(F)(F)F)cc4)N3C2=O)cc1 (stereo partly specified) -7.3%, CCOC(=O)C1=C(CNCc2ccccc2)NC(=O)NC1c1ccc(C)cc1 (stereo unspecified) -8.23%, COc1cccc(-c2nc(SC(C(C)=O)C(=O)N(C)C)c3c(=O)n(C)c(=O)n(C)c3n2)c1 (stereo unspecified) -17.7%, CN(C)CCn1nnnc1SCC1=C(C(=O)O)N2C(=O)[C@@H](NC(=O)Cc3csc(N)n3)[C@H]2SC1 -12.5%, Cc1cc(=O)n(C(C)C(=O)NCc2ccccc2Cl)c2c1c(C)nn2-c1ccccc1 (stereo unspecified) -10.9%, O=C(Nc1ccc(F)cc1)c1cccc(N2CCCS2(=O)=O)c1 -34.2%, Cc1ccc(NC(=O)c2ccc3c(=O)n4nc(Nc5ccccc5C)sc4nc3c2)cc1C -24.9%, CCc1ccc(C2N3CC4(C)CN2CC(c2ccccc2)(C3)C4=O)cc1 (stereo unspecified) -10.4%, Cc1c2cnn(CC(=O)N3CCCCC3)c(=O)c2c(C)n1Cc1ccc(Cl)cc1 -6.34%, CCn1cc(C(=O)NCc2ccccc2)c(=O)c2cc(S(=O)(=O)N3CCOCC3)ccc21 4.23%, COC(=O)C1=C(C)NC(=O)NC1c1cn(-c2ccccc2)nc1-c1ccc(OC)c(Cl)c1 (stereo unspecified) -4.15%, Cc1ccc(C(C)C)c(OCC(=O)Nc2c(C(=O)c3ccc(F)cc3)oc3ccccc23)c1 -1.4%, Cc1cc(O)c(C(c2ccccc2Cl)N2CCCCC2)c(=O)n1Cc1ccco1 (stereo unspecified) -20.7%, COc1cc(OC)c(C2C=C(c3ccc(C)cc3)Nc3c(C(=O)Nc4ccccc4)cnn32)cc1OC (stereo unspecified) -11.5%, Cc1c(Cl)cccc1NC(=O)C(=O)NCCc1csc(-c2cccc(F)c2)n1 -2.61%, CC(C)CCCC(C)N (stereo unspecified) 9.55%, Cc1ccc(/C=C/c2onc(C)c2S(=O)(=O)N2CCC(C(=O)NCc3ccc(Cl)cc3)CC2)cc1 -7.43%, CC(NC(=O)c1ccc(N2Cc3ccccc3Oc3ncccc32)s1)c1ccccc1 (stereo unspecified) -15.5%, CCOC(=O)C(C)NC(=O)c1cc2c(=O)[nH]c3ccc(C)cc3c2s1 (stereo unspecified) -7.76%, O=C(NCCc1ccc(Cl)cc1)c1ccc2c(c1)N(Cc1ccc(F)cc1Cl)C(=O)CS2 8.69%, CC(NC(=O)Cc1ccc(NC(=O)N2CCCCc3ccccc32)cc1)c1ccccc1 (stereo unspecified) 0.552%, COc1ccc(-c2nc(CSc3nc4ncccc4[nH]3)c(C)o2)cc1OC 6.89%, COc1ccc(NC(=O)c2ccc(-c3cccc(Cl)c3C)o2)cc1 -17.5%, COc1ccc(-c2[nH]c(-c3ccccc3)nc2SCC(=O)Nc2ccc3c(c2)OCO3)cc1 -17.8%, CCn1c(CN2CCCCC2)nc2cc(NC(=O)COc3ccc([N+](=O)[O-])cc3)ccc21 -14.2%, Cc1oc(-c2ccc(Cl)cc2)nc1CN1CCCC(C(=O)NCc2ccc(Cl)cc2)C1 (stereo unspecified) -36.9%, CCCOc1ccccc1C(=O)Nc1nc2c(s1)CCCC2 -11%, CN(Cc1ccccc1)C(=O)c1ccc2c(c1)N(Cc1ccc(Cl)cc1)C(=O)c1ccccc1S2=O (stereo unspecified) -13.4%, CCOC(=O)c1cnc2c(C)cc(C)cc2c1Nc1ccc(N2CCOCC2)cc1 -21.5%, COc1ccc(C(=O)Nc2ccc3c(c2)N(C)C(=O)c2ccccc2S3)cc1OC -21.2%, C1=CC2C3C=CC(C3)C2C1 (stereo unspecified) -13.7% [at 114 µM], CCOC(=O)N1CCN(C(=O)c2cnn(-c3cccc(C)c3)c2-n2cccc2)CC1 -13%, Cc1nnc(N2CCC(C(=O)NCc3cccc(Cl)c3)CC2)c2nn(-c3ccccc3)c(C)c12 -12%, CCc1ccccc1N1CC(c2nc3ccccc3n2CCC2CCCCC2)CC1=O (stereo unspecified) -14.5%, COc1cccc(NS(=O)(=O)c2ccc3[nH]cc(C(=O)N(C)Cc4ccco4)c(=O)c3c2)c1 2.82%, CC(C)c1ccc(NC(=O)CSC2=Nc3ccccc3C3=NC(CC(=O)NCc4ccco4)C(=O)N23)cc1 (stereo unspecified) -19%, COc1ccc(NC(=O)c2ccc3c(=O)n4nc(Nc5ccccc5C)sc4nc3c2)cc1 -3.49%, O=c1c2ccccc2n2c(-c3cccc(F)c3)nnc2n1Cc1ccccc1 -10.2%, Cn1c(=O)c2c(c3ccccc31)OC(=O)CC2c1ccccc1 (stereo unspecified) 2.49%, Cc1ccc(N(C)C(=O)c2noc3c2CCCCC3)cc1C -2.46%, Cc1ccc(CC(=O)NCc2nc(-c3cccc(C)c3)no2)cc1 -13.4%, Cc1cccc(N2CCN(C(=O)c3c4c(nc5ccccc35)C(=O)N(C3CCCCC3)C4)CC2)c1C -14.8%, CN(C)c1ccc(-c2nc3ccccn3c2Nc2ccc3c(c2)OCCO3)cc1 -15%, COc1ccc(OC)c(NC(=O)c2cc3c(=O)n4cccc(C)c4nc3n2C)c1 -3.28%, COc1cccc(NC(=O)CSc2nnc(NC(=O)NC3CCCCC3)s2)c1 -2.43%, COc1cc(OC)c(NC(=O)C(C)n2nc(-c3ccc(C)c(C)c3)ccc2=O)cc1Cl (stereo unspecified) -6.67%, CSc1ncc(C(=O)NCc2cccc(Br)c2)c(-c2ccccc2)n1 12.3%, COCCN1C(=O)c2oc3ccc(C)cc3c(=O)c2C1c1ccc(C(=O)OC)cc1 (stereo unspecified) 5.78%, Cc1ccc(NC(=O)N2CCc3c([nH]c4ccccc34)C2c2ccccc2F)c(Cl)c1 (stereo unspecified) -14.7%, CCCN1Cc2cccc(C(=O)Nc3ccc(OC)cc3OC)c2C1=O -9.92%, O=C(Cn1c(=O)c2sccc2n(CC(=O)Nc2ccc(Cl)cc2Cl)c1=O)NCCc1ccccc1 2.67%, COc1cccc(C(=O)c2cn(CC(=O)Nc3cccc(Cl)c3C)c3nc(C)ccc3c2=O)c1 -14.9%, COc1ccc(C(C(=O)NCc2ccccc2)N(C(=O)Cn2nnc3ccccc32)c2ccc(OC)cc2)cc1 (stereo unspecified) 7.92%
